From publication PMC11876325
No constants are given. Whether binding was seen depends on the method and setting. Some entries that bind do so weakly or less than the wild type.

T1: Psy3-F15A (pGBD psy3-F15A) (S. cerevisiae) (UniProt Q12318)
T1 sequence: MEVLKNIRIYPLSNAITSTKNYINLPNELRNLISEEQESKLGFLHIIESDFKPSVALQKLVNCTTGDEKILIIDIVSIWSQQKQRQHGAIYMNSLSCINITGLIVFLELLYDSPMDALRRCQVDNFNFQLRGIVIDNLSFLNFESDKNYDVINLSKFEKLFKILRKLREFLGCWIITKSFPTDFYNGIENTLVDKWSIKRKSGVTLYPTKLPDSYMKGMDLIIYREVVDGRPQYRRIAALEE

T2: Csm2-KRRR (pGBD csm2-K189A, R190A, R191A, R192A) (S. cerevisiae) (UniProt P40465)
T2 sequence: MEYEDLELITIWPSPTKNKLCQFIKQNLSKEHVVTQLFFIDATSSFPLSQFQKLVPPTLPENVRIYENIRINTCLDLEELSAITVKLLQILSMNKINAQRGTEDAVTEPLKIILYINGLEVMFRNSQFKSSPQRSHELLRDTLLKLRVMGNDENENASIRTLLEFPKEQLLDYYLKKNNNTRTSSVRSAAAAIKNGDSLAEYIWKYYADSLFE

T3: Psy3-L12A (pGBD psy3-L12A) (S. cerevisiae) (UniProt Q12318)
T3 sequence: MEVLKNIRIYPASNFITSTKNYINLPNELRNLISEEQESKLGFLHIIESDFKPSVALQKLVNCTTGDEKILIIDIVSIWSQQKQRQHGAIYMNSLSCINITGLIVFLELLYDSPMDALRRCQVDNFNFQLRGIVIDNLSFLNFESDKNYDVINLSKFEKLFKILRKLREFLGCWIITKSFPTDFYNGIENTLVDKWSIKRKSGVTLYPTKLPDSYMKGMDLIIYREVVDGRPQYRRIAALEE

T4: Psy3-T17A (pGBD psy3-T17A) (S. cerevisiae) (UniProt Q12318)
T4 sequence: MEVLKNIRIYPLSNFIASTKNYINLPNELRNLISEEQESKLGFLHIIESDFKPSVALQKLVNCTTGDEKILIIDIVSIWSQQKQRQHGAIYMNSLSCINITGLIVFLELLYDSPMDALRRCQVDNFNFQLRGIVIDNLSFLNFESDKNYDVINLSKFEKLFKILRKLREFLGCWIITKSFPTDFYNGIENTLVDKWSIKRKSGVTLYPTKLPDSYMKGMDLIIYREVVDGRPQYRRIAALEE

T5: Psy3-KRK (pGBD psy3-K199A, R200A, K201A) (S. cerevisiae) (UniProt Q12318)
T5 sequence: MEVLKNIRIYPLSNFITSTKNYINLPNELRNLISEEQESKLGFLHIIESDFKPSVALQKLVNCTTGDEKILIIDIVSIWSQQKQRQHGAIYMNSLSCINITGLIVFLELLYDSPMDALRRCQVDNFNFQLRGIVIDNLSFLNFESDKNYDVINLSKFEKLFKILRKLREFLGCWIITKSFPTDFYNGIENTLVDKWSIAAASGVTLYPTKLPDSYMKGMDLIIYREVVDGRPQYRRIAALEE

T6: Rad57 (pGBD Rad57) (S. cerevisiae) (UniProt P25301)
T6 sequence: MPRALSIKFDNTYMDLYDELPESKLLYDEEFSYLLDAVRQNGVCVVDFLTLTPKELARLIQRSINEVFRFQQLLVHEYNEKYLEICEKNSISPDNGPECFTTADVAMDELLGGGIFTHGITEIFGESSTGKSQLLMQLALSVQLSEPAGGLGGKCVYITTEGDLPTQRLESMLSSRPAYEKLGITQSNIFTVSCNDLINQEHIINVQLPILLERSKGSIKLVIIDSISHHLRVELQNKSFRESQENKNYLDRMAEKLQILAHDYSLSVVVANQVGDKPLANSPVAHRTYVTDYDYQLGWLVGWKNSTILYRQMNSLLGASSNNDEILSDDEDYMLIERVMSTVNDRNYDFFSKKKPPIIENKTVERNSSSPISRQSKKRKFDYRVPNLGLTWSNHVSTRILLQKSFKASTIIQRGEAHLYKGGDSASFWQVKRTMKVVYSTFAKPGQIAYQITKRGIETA

T7: Psy3-Y10A (pGBD psy3-Y10A) (S. cerevisiae) (UniProt Q12318)
T7 sequence: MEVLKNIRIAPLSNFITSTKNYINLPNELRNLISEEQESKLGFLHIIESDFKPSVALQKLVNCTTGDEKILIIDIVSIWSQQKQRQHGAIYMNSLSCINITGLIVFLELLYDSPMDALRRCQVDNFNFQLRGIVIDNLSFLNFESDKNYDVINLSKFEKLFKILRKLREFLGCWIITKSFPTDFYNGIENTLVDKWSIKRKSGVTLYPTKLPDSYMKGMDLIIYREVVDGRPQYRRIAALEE


Assays:
Test in all cases: two-hybrid; GAL4 DNA-binding domain (pGBD) and GAL4 activation domain (pGAD) fusions co-transformed into PJ69-4α (also its rad51∆, rad55∆, csm2∆, shu1∆ and shu2∆ derivatives); growth on SC-L-W-H, 2-3 days, 30 °C
[1] = biological target: T1, Psy3-F15A (pGBD psy3-F15A) (S. cerevisiae)
[2] = biological target: T2, Csm2-KRRR (pGBD csm2-K189A, R190A, R191A, R192A) (S. cerevisiae)
[3] = biological target: T3, Psy3-L12A (pGBD psy3-L12A) (S. cerevisiae)
[4] = biological target: T4, Psy3-T17A (pGBD psy3-T17A) (S. cerevisiae)
[5] = biological target: T5, Psy3-KRK (pGBD psy3-K199A, R200A, K201A) (S. cerevisiae)
[6] = biological target: T6, Rad57 (pGBD Rad57) (S. cerevisiae)
[7] = biological target: T7, Psy3-Y10A (pGBD psy3-Y10A) (S. cerevisiae)

Row | binding [1] | binding [2] | binding [3] | binding [4] | binding [5] | binding [6] | binding [7] | Binder
1 | no binding | binds | no binding | no binding | binds | no binding | no binding | Orc6 (pGAD ORC6) (protein, UniProt P38826 1-435) MSMQQVQHCVAEVLRLDPQEKPDWSSGYLKKLTNATSILYNTSLNKVMLKQDEEVARCHICAYIASQKMNEKHMPDLCYYIDSIPLEPKKAKHLMNLFRQSLSNSSPMKQFAWTPSPKKNKRSPVKNGGRFTSSDPKELRNQLFGTPTKVRKSQNNDSFVIPELPPMQTNESPSITRRKLAFEEDEDEDEEEPGNDGLSLKSHSNKSITGTRNVDSDEYENHESDPTSEEEPLGVQESRSGRTKQNKAVGKPQSELKTAKALRKRGRIPNSLLVKKYCKMTTEEIIRLCNDFELPREVAYKIVDEYNINASRLVCPWQLVCGLVLNCTFIVFNERRRKDPRIDHFIVSKMCSLMLTSKVDDVIECVKLVKELIIGEKWFRDLQIRYDDFDGIRYDEIIFRKLGSMLQTTNILVTDDQYNIWKKRIEMDLALTEPL
2 | no binding | binds | no binding | no binding | binds | no binding | no binding | Mcm4 (pGAD Mcm4) (protein, UniProt P30665 1-933) MSQQSSSPTKEDNNSSSPVVPNPDSVPPQLSSPALFYSSSSSQGDIYGRNNSQNLSQGEGNIRAAIGSSPLNFPSSSQRQNSDVFQSQGRQGRIRSSASASGRSRYHSDLRSDRALPTSSSSLGRNGQNRVHMRRNDIHTSDLSSPRRIVDFDTRSGVNTLDTSSSSAPPSEASEPLRIIWGTNVSIQECTTNFRNFLMSFKYKFRKILDEREEFINNTTDEELYYIKQLNEMRELGTSNLNLDARNLLAYKQTEDLYHQLLNYPQEVISIMDQTIKDCMVSLIVDNNLDYDLDEIETKFYKVRPYNVGSCKGMRELNPNDIDKLINLKGLVLRSTPVIPDMKVAFFKCNVCDHTMAVEIDRGVIQEPARCERIDCNEPNSMSLIHNRCSFADKQVIKLQETPDFVPDGQTPHSISLCVYDELVDSCRAGDRIEVTGTFRSIPIRANSRQRVLKSLYKTYVDVVHVKKVSDKRLDVDTSTIEQELMQNKVDHNEVEEVRQITDQDLAKIREVAAREDLYSLLARSIAPSIYELEDVKKGILLQLFGGTNKTFTKGGRYRGDINILLCGDPSTSKSQILQYVHKITPRGVYTSGKGSSAVGLTAYITRDVDTKQLVLESGALVLSDGGVCCIDEFDKMSDSTRSVLHEVMEQQTISIAKAGIITTLNARSSILASANPIGSRYNPNLPVTENIDLPPPLLSRFDLVYLVLDKVDEKNDRELAKHLTNLYLEDKPEHISQDDVLPVEFLTMYISYAKEHIHPIITEAAKTELVRAYVGMRKMGDDSRSDEKRITATTRQLESMIRLAEAHAKMKLKNVVELEDVQEAVRLIRSAIKDYATDPKTGKIDMNLVQTGKSVIQRKLQEDLSREIMNVLKDQASDSMSFNELIKQINEHSQDRVESSDIQEALSRLQQEDKVIVLGEGVRRSVRLNNRV
